# Test results: PMC4336329 (PLoS ONE, 2015)
# Hit rate of the full screen: of about 310,000 compounds, about 14,000 (4.5%) showed an effect of 50% or more. Effects have a minus sign here. The list shows a part of the results.
# Molecular target: human ether-à-go-go-related gene (hERG) potassium channel (human, UniProt Q12809)
# Assay: primary screen, population patch clamp on CHO cells stably expressing hERG
# 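Further: peak tail current of the secondary pulse compared with the same well before compound.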
# Sequence of human ether-à-go-go-related gene (hERG) potassium channel (Q12809 whole entry, looked up): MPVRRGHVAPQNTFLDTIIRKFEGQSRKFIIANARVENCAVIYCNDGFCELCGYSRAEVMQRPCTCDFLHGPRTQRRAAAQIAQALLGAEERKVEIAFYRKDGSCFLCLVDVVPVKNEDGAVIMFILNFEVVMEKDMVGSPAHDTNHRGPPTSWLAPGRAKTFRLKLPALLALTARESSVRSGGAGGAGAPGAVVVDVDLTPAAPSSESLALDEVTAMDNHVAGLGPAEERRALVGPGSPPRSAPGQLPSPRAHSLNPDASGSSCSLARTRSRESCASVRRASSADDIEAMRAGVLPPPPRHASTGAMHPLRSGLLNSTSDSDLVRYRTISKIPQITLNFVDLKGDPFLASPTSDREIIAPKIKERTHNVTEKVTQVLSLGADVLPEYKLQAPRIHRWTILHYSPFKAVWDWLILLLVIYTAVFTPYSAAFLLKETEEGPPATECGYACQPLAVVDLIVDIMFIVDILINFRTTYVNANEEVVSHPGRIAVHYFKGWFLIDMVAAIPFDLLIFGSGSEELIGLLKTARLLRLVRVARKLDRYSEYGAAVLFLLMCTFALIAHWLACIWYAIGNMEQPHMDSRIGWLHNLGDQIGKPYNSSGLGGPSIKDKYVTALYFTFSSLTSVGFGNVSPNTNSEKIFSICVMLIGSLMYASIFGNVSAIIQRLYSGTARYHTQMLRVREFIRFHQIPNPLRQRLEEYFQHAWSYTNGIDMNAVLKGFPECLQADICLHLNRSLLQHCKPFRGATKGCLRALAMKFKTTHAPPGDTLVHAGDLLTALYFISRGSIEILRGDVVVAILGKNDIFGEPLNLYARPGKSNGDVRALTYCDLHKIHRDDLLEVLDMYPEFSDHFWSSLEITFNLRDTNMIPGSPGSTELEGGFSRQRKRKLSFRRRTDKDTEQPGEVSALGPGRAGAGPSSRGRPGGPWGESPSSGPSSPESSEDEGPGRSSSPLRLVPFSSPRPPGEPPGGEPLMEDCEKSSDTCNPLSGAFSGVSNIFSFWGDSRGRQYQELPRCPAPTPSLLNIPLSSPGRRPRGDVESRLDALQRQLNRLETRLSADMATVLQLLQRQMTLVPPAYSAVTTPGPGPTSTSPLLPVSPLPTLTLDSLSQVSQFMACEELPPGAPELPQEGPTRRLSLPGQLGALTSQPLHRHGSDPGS
row,SMILES,"hERG current change (%, negative = inhibition) at 10uM"
1,CC1(C(=O)NC2CCCCCCC2)CCC(=O)N1Cc1cccs1 (centres unmarked),-10.8%
2,COc1ccc(-c2nnnn2C)cc1S(=O)(=O)Nc1ccc(C)cc1C,-7.53%
3,CCOP(=O)(OCC)C(NC(=O)C(C)C)C(Cl)(Cl)Cl (centres unmarked),3.71%
4,C=CCOc1ccc(C2c3c(oc4ccccc4c3=O)C(=O)N2CCCN2CCOCC2)cc1 (centres unmarked),-47.8%
5,CCOc1ccc(C(=O)NCCCN(CC)CC)cc1,-51.8%
6,Cc1ccc(Cn2ccc(NC(=O)c3c(-c4ccccc4Cl)noc3C)n2)cc1,-15.7%
7,CCC(=O)Nc1ccc2c(c1)nc1n2CCSC1,4.81%
8,C/C(=N\NC(=O)C1CC1)c1ccc(N2CCOCC2)cc1,-0.403%
9,Oc1ccc(NC(=S)Nc2ccccc2)cc1,6.12%
10,COc1ccc(C(=O)NC(Nc2ccc(C)cc2)C(Cl)(Cl)Cl)cc1 (centres unmarked),-0.867%
11,CCOc1ncccc1C(=O)OCC(=O)N1c2ccccc2CC1C (centres unmarked),-19.1%
12,O=C(CN1CCN(Cc2ccccc2)CC1)Nc1ccc(Br)cc1,-71.9%
13,COc1ccc(CNC(=O)COC(=O)c2ccc(Br)o2)cc1,6.76%
14,COc1ccc(S(=O)(=O)Nc2ccccc2-c2nc3ccccc3[nH]c2=O)cc1,-9.79%
15,COc1ccc(CNC(=O)CCn2c(=O)c3cccn3c3ccc(F)cc32)cc1,-7.82%
16,O=C(c1oc(=O)c2ccccc2c1-c1ccccc1)N1CCC(O)CC1,-11.6%
17,O=C(NCc1ccc(F)cc1)C1CCN(C(=O)Nc2ccc(F)cc2)CC1,-49.2%
18,O=C(N1CCC(O)(c2cccnc2)CC1)C12CC3CC(CC(C3)C1)C2,-5.02%
19,CO/N=C/c1ccc(N2CCN(C(=O)c3cccc(C(F)(F)F)c3)CC2)c([N+](=O)[O-])c1,-43.5%
20,O=C(CN1C(=O)/C(=C/c2ccccc2)SC1=S)NC1CCS(=O)(=O)C1 (centres unmarked),14.9%
21,CCOc1ccccc1N(C)S(=O)(=O)c1ccc2c(c1)N(C(C)=O)CCO2,11.9%
22,CCC(C)NC(=O)C1CCCN(C(=O)NC2CCCCC2)C1 (centres unmarked),13.8%
23,CC(C)Cn1c(=O)c2c(nc3n2CCCN3CCc2ccccc2)n(C)c1=O,-76%

row,SMILES,"hERG current change (%, negative = inhibition) at 10uM"
1,NC(=O)c1ccc(NC(=O)COc2coc(CN3CCc4ccccc4C3)cc2=O)cc1,-1.88%
2,COc1ccc(N(CC(=O)Nc2ccc3c(c2)OCO3)S(=O)(=O)c2ccccc2)cc1OC,4.09%
3,CCCNC(=O)CS(=O)(=O)Cc1nc(-c2ccccc2C)oc1C,3.88%
4,CC(NC(=O)COC(=O)c1cc(=O)[nH]c2ccccc12)c1ccccc1 (centres unmarked),10.7%
5,CCCCc1ccc(S(=O)(=O)NC2CCS(=O)(=O)C2)cc1 (centres unmarked),-2.26%
6,Cl.OC(COc1ccc(Cl)c2ccccc12)CN1CCN(c2ccccn2)CC1 (centres unmarked),-21.9%
7,Cc1ccc(-n2c(C)cc(C)c(C#N)c2=O)cc1Cl,0.68%
8,CN1CCN(C(=O)C2CCCN(S(=O)(=O)c3ccccc3)C2)CC1 (centres unmarked),13.8%
9,COc1cc(C(=O)OCCc2cc3ccccc3c(=O)o2)cc(OC)c1OC,-14.6%
10,O=C(NCC1CCN(Cc2ccccc2F)CC1)Nc1cccc(Br)c1,-43.2%
11,CCC(COC)NC(=O)c1ccc(OC)c(OC2CCN(C(C)=O)CC2)c1 (centres unmarked),8.31%
12,N#Cc1ccccc1NC(=O)C1SC(=Nc2ccccc2)C(C(=O)Nc2ccc(Cl)cc2)=C1N (centres unmarked),8.69%
13,COc1ccccc1-c1noc(-c2cccnc2)n1,11.9%
14,Cc1ccc(N2C(=O)C(F)(F)C2c2ccccc2)cc1 (centres unmarked),13.6%
15,COc1ccc(CN2C(=O)c3ccccc3C2=O)cc1C(=O)O,25.6%
16,O=c1[nH]c(-c2ccccc2)nc2sc(-c3ccccc3)cc12,11.5%
17,COc1cc(C)c(CN2CC=C(c3ccc(F)cc3)CC2)cc1C,-37.2%
18,Cc1cc(C(=O)Nc2ccc(S(=O)(=O)N3CCOCC3)cc2)ccc1[N+](=O)[O-],-46.8%
19,CCCCn1c(-c2csc(CCC)c2)n[nH]c1=S,14.8%
20,COC(=O)CNC(=O)Cn1nc(C)c([N+](=O)[O-])c1C,9.11%
21,COc1ccccc1N=Nc1c(O)[nH]c2ccc(Br)cc12,14.2%
22,CC(C)Cn1c(N)c(C(=O)COC(=O)C2CC(=O)N(Cc3ccccc3Cl)C2)c(=O)n(C)c1=O (centres unmarked),-43.1%
23,Cc1cccc(N2CCN(C(=O)c3cc4c(=O)n(C)c5ccccc5c4n3C)CC2C)c1 (centres unmarked),-16%

row,SMILES,"hERG current change (%, negative = inhibition) at 10uM"
1,CCS(=O)(=O)Nc1ccc(C(=O)OC)cc1,7.75%
2,Cc1nn(C)c(C)c1CNC(=O)Nc1cccc(Cl)c1,6.93%
3,O=C(O)C(c1ccccc1)N1C(=O)/C(=C\c2ccc(O)c(O)c2)SC1=S (centres unmarked),25.2%
4,O=C(NCC1CCCO1)c1cccc(S(=O)(=O)N(Cc2ccccc2)c2ccccc2)c1 (centres unmarked),-37.1%
5,CCCOc1ccc(C(=O)CCC(=O)OCC(=O)N(C)c2c(N)n(Cc3ccccc3)c(=O)[nH]c2=O)cc1,-1.28%
6,COc1cccc(Oc2c(C)oc3c(CN4CCCCC4)c(O)ccc3c2=O)c1,17.7%
7,O=C(Nc1cc(Cl)ccc1O)C1CCCO1 (centres unmarked),7.88%
8,Br.CCCN(CCC)C1CCc2cccc(O)c2C1 (centres unmarked),-10.6%
9,O=C(CSc1ncn[nH]1)N(C1CCCCC1)C1CCCCC1,-16.5%
10,CC(C)=CCCC(C)CN1CCC(n2nccc2NC(=O)C2CCCC2)CC1 (centres unmarked),-70.8%
11,CCOC(=O)CSc1nnc(-c2ccc(S(=O)(=O)N3CCC(C)CC3)cc2)o1,-5.93%
12,Cc1ccc(N2C(=O)N(CC(=O)N3CCCc4ccccc43)C(=O)C2C)cc1 (centres unmarked),4.51%
13,Cc1ccc(CNC(=O)c2ccc3c(=O)n(CCCN4CCCC4=O)c(=S)[nH]c3c2)cc1,6.41%
14,Cc1ccccc1N(CC(=O)Nc1ccc(F)cc1)S(C)(=O)=O,1.27%
15,CCOc1ccccc1CN1CCNC(=O)C1CC(=O)NCCC1=CCCCC1 (centres unmarked),4.15%
16,CCOc1ccc(S(=O)(=O)Nc2cc(OC)ccc2OC)cc1,-12.4%
17,Cc1ccc(S(=O)(=O)NC(=O)Nc2cccc(C)n2)cc1,27.8%
18,CC(=O)Nc1cc(C)nn1-c1nc(C)cc(C)n1,25.4%
19,O=S(=O)(NC1CCCCC1)c1ccc(Cl)s1,-6.76%
20,S=C(c1ccccc1)N1CCSCC1,6.14%
21,CCOC(=O)N1CCN(Cc2nnc(-c3ccccc3C)o2)CC1.Cl,10.3%
22,COc1ccccc1CNC(=O)C1(c2ccc(Cl)cc2)CC1,-11.7%
23,Cc1ccc(C(=O)C2CCN(CC(=O)Nc3ccc(N(C)C)cc3)CC2)cc1,-36.4%

row,SMILES,"hERG current change (%, negative = inhibition) at 10uM"
1,COc1ccc(-c2c[n+]3c4n2CCCCC4=C(c2ccccc2)C3)cc1.[Br-],-75.1%
2,CCC1=C(OC(=O)N(CC)CC)N2C(=O)OC(=NCC(=O)OC)[C@]2(C)[C@H]2C1=CC[C@H]1C(=O)NC(=O)[C@H]12,-15.5%
3,COC(=O)c1cc(=O)n(C2CC2)c(=NC2CC2)s1,-12.2%
4,CC1CCCCN1C(=O)C(Cc1ccccc1)N1C(=O)C2CCCCC2C1=O (centres unmarked),7.93%
5,Clc1ccc(CSc2cc3c(nn2)-c2ccccc2CC3)cc1Cl,-6.56%
6,COc1ccc2nc(NC(=O)[C@@H]3CCCN3C(=O)c3cccs3)sc2c1,-56.4%
7,C=CCSC1=NC(N)=C(C#N)C2(CCCCC2)C1C(N)=O (centres unmarked),-2.72%
8,C=CCN(C/C(=N\O)c1sc(C(=O)OCC)nc1C)c1cccc(Br)c1,0.291%
9,COc1ccc([N+](=O)[O-])cc1NC(=O)CCN1CCN(c2ccccc2)CC1,11.1%
10,Cc1ccccc1N(C(=O)c1snc(C(N)=O)c1N)C(C(=O)NCC1CCCO1)c1ccc(F)cc1 (centres unmarked),-7.02%
11,O=C(Cc1c(F)cccc1Cl)N/N=C/c1cccnc1,6.3%
12,CCc1noc(C)c1C(=O)NNC(=O)c1ccccc1Cl,19.2%
13,CCN1CCN(CC(=O)Nc2nc3ccccc3s2)CC1.O=CO,-22.7%
14,Cc1ccc(NC(=O)CCn2nc([N+](=O)[O-])cc2C)nc1,-8.11%
15,O=C(c1ccc(CS(=O)c2cccc(Cl)c2)o1)N1CCN(c2ccccn2)CC1 (centres unmarked),-22.1%
16,CC(=O)Nc1ccc(S(=O)(=O)Nc2ccccc2N2CCOCC2)cc1Cl,-1.56%
17,CN1CCN(S(=O)(=O)c2ccc(NC(=S)NC(=O)c3ccccc3)cc2)CC1,-1.38%
18,CC(=O)N1c2ccc(S(=O)(=O)NCCC(=O)Nc3cccc(Cl)c3)cc2CC1C (centres unmarked),3.11%
19,COCc1nnc(NC(=O)COc2ccc3c(c2)OCO3)s1,14.1%
20,CCOC(=O)c1c(C)n(Cc2ccccc2)c2ccc(OCC(O)CNC(C)(C)C)cc12 (centres unmarked),-41%
